Assay results published in a collection of fitness landscapes (doi:10.1016/j.celrep.2020.107928).
In all, about 81,000 sequences were measured (“one-hybrid fitness for binding parS DNA”: median about -0.17, highest 2% from about 0.51 on). The list shows a part of the results.

B1: Caulobacter ParB omega fusion; a variant is named by its letters at X, in order, B8GW30 (parent)
chain: MESVVVGEPGMSEGRRGLGRGLSALLGEVDAAPAQAPGEQLGGSREAPIEILQRNPDQPRRTFREEDLEDLSNSIREKGVLQPILVRPSPDTAGEYQIVAGERAWRAAQRAGLKTVPIMVRELDDLAVLEIGIIENVQRADLNVLEEALSYKVLMEKFERTQENIAQTIGKSXSHVANXMRLLXLPDEVQSYLVSGELTAXHARAIAAAADPVALAKQIIEGGLSVRETEALARKAPNLSAGKSKGGRPPRVKDTDTQALESDLSSVLGLDVSIDHRGSTGTLTITYATLEQLDDLCNRLTRGI

Variants of: B1
Experiment: one-hybrid fitness for binding parS DNA (scaled: cognate 1, non-cognate 0); higher = stronger binding
Details: with parS DNA site
Procedure, shortened: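 Caulobacter ParB libraries with four specificity codons randomised were screened by bacterial one-hybrid selection in the E. coli USO strain, using a HIS3 reporter whose site lies 19 bp from the promoter. Selection ran for 48 hours at 37°C on M9 lacking histidine, with 0.1 mM IPTG and 5 mM 3-AT. Plasmids were Illumina-sequenced before and after selection, three replicate libraries were pooled, and variants with under 10 reads were dropped. Fitness is the log change in each variant's read ratio to wild type, rescaled against the cognate and non-cognate sites.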
With CEPV the “one-hybrid fitness for binding parS DNA” value was at most 0.2.
RKNW was tested, and the “one-hybrid fitness for binding parS DNA” value was at most 0.2.
RTLY was tested, and the “one-hybrid fitness for binding parS DNA” value was 0.495.
For PYTD, the “one-hybrid fitness for binding parS DNA” value was at most 0.2.
RVPG was tested, and the “one-hybrid fitness for binding parS DNA” value was 0.691.
In the case of NPIC, the “one-hybrid fitness for binding parS DNA” value is reported as at most 0.2.
ARAM was tested, and the “one-hybrid fitness for binding parS DNA” value was at most 0.2.
With LVWL the “one-hybrid fitness for binding parS DNA” value was at most 0.2.
In the case of RMHP, the “one-hybrid fitness for binding parS DNA” value is reported as at most 0.2.
With DPAF the “one-hybrid fitness for binding parS DNA” value was at most 0.2.
In the case of VMNS, the “one-hybrid fitness for binding parS DNA” value is reported as at most 0.2.
For CVDK, the “one-hybrid fitness for binding parS DNA” value was at most 0.2.
In the case of APLS, the “one-hybrid fitness for binding parS DNA” value is reported as at most 0.2.
In the case of QQAE, the “one-hybrid fitness for binding parS DNA” value is reported as at most 0.2.
For AWAT, the “one-hybrid fitness for binding parS DNA” value was at most 0.2.
For SLRC, the “one-hybrid fitness for binding parS DNA” value was at most 0.2.
For CCVV, the “one-hybrid fitness for binding parS DNA” value was at most 0.2.
With SNGG the “one-hybrid fitness for binding parS DNA” value was at most 0.2.
With NEKN the “one-hybrid fitness for binding parS DNA” value was at most 0.2.
KRRL was tested, and the “one-hybrid fitness for binding parS DNA” value was at most 0.2.
With TRYL the “one-hybrid fitness for binding parS DNA” value was at most 0.2.
LQPM was tested, and the “one-hybrid fitness for binding parS DNA” value was at most 0.2.
In the case of DLRV, the “one-hybrid fitness for binding parS DNA” value is reported as at most 0.2.
In the case of WRSS, the “one-hybrid fitness for binding parS DNA” value is reported as at most 0.2.
In the case of VDLA, the “one-hybrid fitness for binding parS DNA” value is reported as at most 0.2.
For FAAG, the “one-hybrid fitness for binding parS DNA” value was at most 0.2.
In the case of QLQT, the “one-hybrid fitness for binding parS DNA” value is reported as at most 0.2.
For VGSI, the “one-hybrid fitness for binding parS DNA” value was at most 0.2.
With QPHG the “one-hybrid fitness for binding parS DNA” value was at most 0.2.
RITQ was tested, and the “one-hybrid fitness for binding parS DNA” value was at most 0.2.
For IYVS, the “one-hybrid fitness for binding parS DNA” value was at most 0.2.
In the case of ETQI, the “one-hybrid fitness for binding parS DNA” value is reported as at most 0.2.
For CTPR, the “one-hybrid fitness for binding parS DNA” value was at most 0.2.
In the case of IWMS, the “one-hybrid fitness for binding parS DNA” value is reported as at most 0.2.
For CPPY, the “one-hybrid fitness for binding parS DNA” value was at most 0.2.
For RRII, the “one-hybrid fitness for binding parS DNA” value was at most 0.2.
With CVTW the “one-hybrid fitness for binding parS DNA” value was at most 0.2.
With PQFR the “one-hybrid fitness for binding parS DNA” value was at most 0.2.
In the case of VREI, the “one-hybrid fitness for binding parS DNA” value is reported as at most 0.2.
WGKR was tested, and the “one-hybrid fitness for binding parS DNA” value was at most 0.2.
For PAGC, the “one-hybrid fitness for binding parS DNA” value was at most 0.2.
QSTD was tested, and the “one-hybrid fitness for binding parS DNA” value was at most 0.2.
In the case of FTYG, the “one-hybrid fitness for binding parS DNA” value is reported as at most 0.2.
WLAY was tested, and the “one-hybrid fitness for binding parS DNA” value was at most 0.2.
GTED was tested, and the “one-hybrid fitness for binding parS DNA” value was at most 0.2.
In the case of SLKN, the “one-hybrid fitness for binding parS DNA” value is reported as at most 0.2.
For LVTL, the “one-hybrid fitness for binding parS DNA” value was at most 0.2.
In the case of FLDR, the “one-hybrid fitness for binding parS DNA” value is reported as at most 0.2.
In the case of YMCG, the “one-hybrid fitness for binding parS DNA” value is reported as at most 0.2.
QCHV was tested, and the “one-hybrid fitness for binding parS DNA” value was at most 0.2.
EQKS was tested, and the “one-hybrid fitness for binding parS DNA” value was at most 0.2.
For KSKK, the “one-hybrid fitness for binding parS DNA” value was at most 0.2.
In the case of LRTP, the “one-hybrid fitness for binding parS DNA” value is reported as at most 0.2.
With TGKY the “one-hybrid fitness for binding parS DNA” value was at most 0.2.
KASR was tested, and the “one-hybrid fitness for binding parS DNA” value was at most 0.2.
SEAW was tested, and the “one-hybrid fitness for binding parS DNA” value was at most 0.2.
LFKF was tested, and the “one-hybrid fitness for binding parS DNA” value was at most 0.2.
For MYNG, the “one-hybrid fitness for binding parS DNA” value was at most 0.2.
For THNK, the “one-hybrid fitness for binding parS DNA” value was at most 0.2.
With VDKT the “one-hybrid fitness for binding parS DNA” value was at most 0.2.
With LCIN the “one-hybrid fitness for binding parS DNA” value was at most 0.2.
With DAHM the “one-hybrid fitness for binding parS DNA” value was at most 0.2.
In the case of RDNQ, the “one-hybrid fitness for binding parS DNA” value is reported as at most 0.2.
In the case of WHKS, the “one-hybrid fitness for binding parS DNA” value is reported as at most 0.2.
With YKKR the “one-hybrid fitness for binding parS DNA” value was at most 0.2.
With FWPT the “one-hybrid fitness for binding parS DNA” value was at most 0.2.
With WFNS the “one-hybrid fitness for binding parS DNA” value was at most 0.2.
In the case of LGSA, the “one-hybrid fitness for binding parS DNA” value is reported as at most 0.2.
RCVF was tested, and the “one-hybrid fitness for binding parS DNA” value was at most 0.2.
With TLQG the “one-hybrid fitness for binding parS DNA” value was at most 0.2.
For THMN, the “one-hybrid fitness for binding parS DNA” value was at most 0.2.
For DRQW, the “one-hybrid fitness for binding parS DNA” value was at most 0.2.
TKDC was tested, and the “one-hybrid fitness for binding parS DNA” value was at most 0.2.
With IYEM the “one-hybrid fitness for binding parS DNA” value was at most 0.2.
RWYY was tested, and the “one-hybrid fitness for binding parS DNA” value was 0.248.
In the case of WYMC, the “one-hybrid fitness for binding parS DNA” value is reported as at most 0.2.
RATM was tested, and the “one-hybrid fitness for binding parS DNA” value was 0.318.
With RPSK the “one-hybrid fitness for binding parS DNA” value was at most 0.2.
In the case of QAYK, the “one-hybrid fitness for binding parS DNA” value is reported as at most 0.2.
With AYET the “one-hybrid fitness for binding parS DNA” value was at most 0.2.
With CNIS the “one-hybrid fitness for binding parS DNA” value was at most 0.2.
In the case of DPDG, the “one-hybrid fitness for binding parS DNA” value is reported as at most 0.2.
For QKTE, the “one-hybrid fitness for binding parS DNA” value was at most 0.2.
TPTP was tested, and the “one-hybrid fitness for binding parS DNA” value was at most 0.2.
For VHWA, the “one-hybrid fitness for binding parS DNA” value was at most 0.2.
With AENC the “one-hybrid fitness for binding parS DNA” value was at most 0.2.
In the case of TCPS, the “one-hybrid fitness for binding parS DNA” value is reported as at most 0.2.
With YRMR the “one-hybrid fitness for binding parS DNA” value was at most 0.2.
With VIIV the “one-hybrid fitness for binding parS DNA” value was at most 0.2.
In the case of GTSR, the “one-hybrid fitness for binding parS DNA” value is reported as at most 0.2.
With TTYN the “one-hybrid fitness for binding parS DNA” value was at most 0.2.
In the case of HCLE, the “one-hybrid fitness for binding parS DNA” value is reported as at most 0.2.
In the case of ELTM, the “one-hybrid fitness for binding parS DNA” value is reported as at most 0.2.
For SMHV, the “one-hybrid fitness for binding parS DNA” value was at most 0.2.
With SKCF the “one-hybrid fitness for binding parS DNA” value was at most 0.2.
For CYSV, the “one-hybrid fitness for binding parS DNA” value was at most 0.2.
In the case of FCTT, the “one-hybrid fitness for binding parS DNA” value is reported as at most 0.2.
For TACM, the “one-hybrid fitness for binding parS DNA” value was at most 0.2.
